# Structures can show the parent of a compound that is named as a salt. ± gives the standard deviation of the averaged measurements. The full ranking holds about 1,900 compounds; the median of “normalised cell viability (NPI; 0 = phenylarsine oxide control, 1 = DMSO control)” is about 1, and the lowest 2% start at about 0.039. Some of the results follow.
# Tested on: NCI-H1944
# Test: normalised cell viability (NPI; 0 = phenylarsine oxide control, 1 = DMSO control) (fraction of DMSO control); NCI-H1944 is a non-small cell lung cancer line; higher = more viable cells (less compound toxicity)
# Conditions: 6 days
# [1] = glucocorticoid arm: hydrocortisone 2.75 uM co-treatment, compound 1 µM
# [2] = glucocorticoid arm: hydrocortisone 2.75 uM co-treatment, compound 5 µM
# [3] = glucocorticoid arm: hydrocortisone 2.75 uM pre-treated 2 days and continued, compound 1 µM
# [4] = glucocorticoid arm: hydrocortisone 2.75 uM pre-treated 2 days and continued, compound 5 µM
# [5] = glucocorticoid arm: vehicle, compound 1 µM
# [6] = glucocorticoid arm: vehicle, compound 5 µM
# 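Also: CTB read-out in 384-well plates, mean of triplicate wells, normalised per plate against 1 µM phenylarsine oxide and 0.1% DMSO, compounds added 24 h after seeding.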
Structure (SMILES),normalised cell viability [1],normalised cell viability [2],normalised cell viability [3],normalised cell viability [4],normalised cell viability [5],normalised cell viability [6]
CCn1ccnc1CC1COc2ccccc2O1 (configuration not stated) [Imiloxan hydrochloride],1.013 ± 0.0058,1.01 ± 0.028,1.013 ± 0.0058,1.04 ± 0.069,0.996 ± 0.0035,1 ± 0.014
COc1ccc(S(=O)(=O)N(C(C)=O)c2ccccc2/C=C/c2cc[n+]([O-])cc2)cc1,0.383 ± 0.019,0.242 ± 0.032,0.708 ± 0.057,0.515 ± 0.053,0.0884 ± 0.0054,0.0472 ± 0.00059
Cc1c(F)cc(C(=O)NC2CC2)cc1-c1ccc(C(=O)NCC(C)(C)C)cn1,0.821 ± 0.012,0.801 ± 0.028,0.794 ± 0.033,0.884 ± 0.023,0.9853 ± 0.0067,0.993 ± 0.015
C=CCN1CCc2c(cc(O)c(O)c2Br)[C@@H](c2ccccc2)C1 [R(+)-6-Bromo-APB hydrobromide],0.986 ± 0.017,1.01,0.989 ± 0.0095,1 ± 0.011,0.976 ± 0.011,0.9827 ± 0.0035
O=C(/C=C/c1ccc(CN(CCO)CCc2c[nH]c3ccccc23)cc1)NO [LAQ824 (Dacinostat)],0.00706 ± 0.0016,-0.000483 ± 0.0039,0.0151 ± 0.00085,0.00158 ± 0.00078,0.0063 ± 0.00096,-0.000399 ± 0.00047
Cc1cccc(C#Cc2ccccc2)n1 [6-Methyl-2-(phenylethynyl)pyridine hydrochloride],0.9927 ± 0.0061,0.995 ± 0.019,0.999 ± 0.011,1.04 ± 0.074,0.993 ± 0.0076,0.987 ± 0.011
Cc1cccc(C#Cc2ccccc2)n1,1.05 ± 0.044,1.02 ± 0.018,1.033 ± 0.0058,1.023 ± 0.0058,1.003 ± 0.0058,0.998 ± 0.011
"N[C@H](C(=O)O)c1cc(O)cc(O)c1 [(S)-3,5-Dihydroxyphenylglycine]",0.995 ± 0.013,0.974 ± 0.011,0.988 ± 0.011,0.9747 ± 0.0078,0.9913 ± 0.0025,0.9867 ± 0.0021
CC(=O)O[C@]1(C(C)=O)CC[C@H]2[C@@H]3C[C@H](C)C4=CC(=O)CC[C@]4(C)[C@H]3CC[C@@]21C [Medroxyprogesterone acetate],1.04,1.02 ± 0.021,1.04 ± 0.011,0.987 ± 0.013,0.893 ± 0.041,0.838 ± 0.01
COc1cc2c(Oc3ccc4[nH]c(C)cc4c3F)ncnc2cc1OCCCN1CCCC1 [Cediranib (AZD2171)],0.888 ± 0.016,0.792 ± 0.029,0.944 ± 0.01,0.889 ± 0.018,0.9643 ± 0.0086,0.912 ± 0.032
CC(NC(=O)C(O)c1cc(F)cc(F)c1)C(=O)NC1C(=O)N(C)c2ccccc2-c2ccccc21 (configuration not stated),0.973 ± 0.013,0.995 ± 0.017,0.977 ± 0.015,1.007 ± 0.0058,0.9893 ± 0.0038,0.9993 ± 0.0011
Nc1nc2c(nc(Br)n2C2OC3COP(=O)(O)O[C@@H]3C2O)c(=O)[nH]1 (some centres not stated) [8-Bromo-cGMP sodium],1.023 ± 0.0058,1.02,1.02 ± 0.01,1 ± 0.028,1.01 ± 0.011,1.01 ± 0.015
O=[N+]([O-])c1cccc2cn[nH]c12 [7-Nitroindazole],1.01 ± 0.015,0.999 ± 0.045,1.01 ± 0.021,0.844 ± 0.25,1.013 ± 0.0058,1.02 ± 0.01
COc1ccccc1OCC(O)CN1CCN(CC(=O)Nc2c(C)cccc2C)CC1 (configuration not stated) [Ranolazine dihydrochloride],0.9667 ± 0.0051,0.9937 ± 0.0065,0.993 ± 0.019,0.989 ± 0.017,0.9663 ± 0.0057,0.9677 ± 0.0015
COc1cc([C@@H]2c3cc4c(cc3[C@@H](O[C@@H]3O[C@@H]5CO[C@@H](C)O[C@H]5[C@H](O)[C@H]3O)[C@H]3COC(=O)[C@H]23)OCO4)cc(OC)c1O [Etoposide],–,–,1.01,–,–,–
CCCNCC(O)COc1ccccc1C(=O)CCc1ccccc1 (configuration not stated) [Propafenone hydrochloride],1.013 ± 0.0058,0.947 ± 0.011,1.02 ± 0.01,1 ± 0.017,1.01 ± 0.011,1.02 ± 0.017

Structure (SMILES),normalised cell viability [1],normalised cell viability [2],normalised cell viability [3],normalised cell viability [4],normalised cell viability [5],normalised cell viability [6]
O=C1c2ccc(Nc3ccc(F)cc3F)cc2CCc2ccc(OC[C@H](O)CO)cc21 [Skepinone-L],0.865 ± 0.015,0.919 ± 0.016,0.864 ± 0.03,0.87 ± 0.013,1.01,1.04 ± 0.017
CCCCCCCCCCCCCCCCCC(=O)OC(CC(=O)O)C[N+](C)(C)C (racemic) [DL-Stearoylcarnitine chloride],0.9967 ± 0.0042,0.906 ± 0.03,1.01 ± 0.019,0.993 ± 0.0017,1.013 ± 0.0058,0.99967 ± 0.00058
CC(=O)Nc1nc(C)c(-c2ccc(Cl)c(S(=O)(=O)NCCO)c2)s1,0.998 ± 0.013,1 ± 0.044,0.996 ± 0.013,0.975 ± 0.04,0.993 ± 0.006,1.004 ± 0.0098
COc1ccc(C2CNC(=O)C2)cc1OC1CCCC1 (configuration not stated) [Rolipram],0.975 ± 0.0035,0.98 ± 0.019,1.01 ± 0.018,0.985 ± 0.0078,1.001 ± 0.0085,0.988 ± 0.01
O=c1c(O)c(-c2ccc(O)cc2O)oc2cc(O)cc(O)c12 [Morin],0.998 ± 0.012,1 ± 0.033,1 ± 0.014,1.01 ± 0.044,0.985 ± 0.0056,0.998 ± 0.011
CC(/C=C/c1cccc(Oc2ccc(F)cc2)c1)N(O)C(N)=O (configuration not stated),1.017 ± 0.0058,1.07 ± 0.01,1.01 ± 0.011,1.06 ± 0.014,1.02 ± 0.015,1.023 ± 0.0058
COc1ccc(F)c(F)c1C(=O)c1cnc(NC2CCN(S(C)(=O)=O)CC2)nc1N,0.797 ± 0.064,0.846 ± 0.015,1.01 ± 0.011,1.01 ± 0.02,0.367 ± 0.033,0.404 ± 0.028
Oc1ccc([C@@H]2CNCc3sccc32)cc1O,1.013 ± 0.0058,1.03 ± 0.026,0.965 ± 0.069,1.01 ± 0.015,1.003 ± 0.0058,0.9983 ± 0.0015
Cc1ccc([N+](=O)[O-])cc1S(=O)(=O)N(C)C,1 ± 0.018,0.9945 ± 0.0095,1 ± 0.011,0.978 ± 0.028,1.004 ± 0.0094,1.007 ± 0.0052
CC(C)C[C@H](NP(=O)(O)O[C@H]1O[C@H](C)[C@@H](O)[C@H](O)[C@@H]1O)C(=O)N[C@@H](Cc1c[nH]c2ccccc12)C(=O)O [Phosphoramidon disodium],0.9937 ± 0.0061,1.01 ± 0.02,1.01 ± 0.016,0.999 ± 0.011,0.991 ± 0.0044,0.9847 ± 0.0081
NNc1nncc2ccccc12 [Hydralazine hydrochloride],0.99967 ± 0.00058,0.987 ± 0.021,0.997 ± 0.015,0.979 ± 0.022,0.9967 ± 0.0035,0.9957 ± 0.0038
C=CC(=O)Nc1cccc(Oc2nc(Nc3ccc(N4CCN(C)CC4)cc3OC)ncc2Cl)c1,0.993 ± 0.024,0.978 ± 0.021,0.966 ± 0.016,0.993 ± 0.015,0.9853 ± 0.0071,0.986 ± 0.013
O=C(/C=C/c1ccc(O)c(O)c1)OCCc1ccccc1 [Caffeic acid phenethyl ester],1 ± 0.0092,1 ± 0.016,1,0.992 ± 0.012,0.9827 ± 0.0064,0.989 ± 0.012
Cc1ccccc1CN1C2=NCCN2C(=O)C2=C1CCN(Cc1ccccc1)C2,1.01 ± 0.017,1.03 ± 0.026,1.01 ± 0.011,0.991 ± 0.028,0.999 ± 0.011,1.003 ± 0.0058
CC[C@H](C)C(=O)O[C@H]1CCC=C2C=C[C@H](C)[C@H](CC[C@@H]3C[C@@H](O)CC(=O)O3)[C@H]21 [Mevastatin],0.9803 ± 0.0032,0.939 ± 0.042,0.99 ± 0.026,1.03 ± 0.08,0.997 ± 0.003,0.9933 ± 0.0076
Cn1ccc2cc(NC(=O)Nc3cccnc3)ccc21,1.017 ± 0.0058,0.991 ± 0.012,1.02 ± 0.01,1 ± 0.013,0.993 ± 0.015,1

# — the supplement of paper PMC8285479
